Here are results for 19 molecules from the supplement of paper PMC10369915.

The chains are these.
B1: OR1A1_Y288 (peptide)
chain: LNPFIYSLRNR
B2: OAT_Y85_N89K (peptide)
chain: DFLSSYSAVKQ
B3: OR4C46_Y285_K288R (peptide)
chain: LNPLIYTLRNA
B4: OTULIN_Y244 (peptide)
chain: RAIELYNDKEK
B5: P2RX7_Y291_Y288H (peptide)
chain: SLHPGYNFRYA
B6: OTOF_Y254 (peptide)
chain: GRPMDYQVSIT
B7: OPRK1_Y369 (peptide)
chain: VQDPAYLRDID
B8: OTC_Y223 (peptide)
chain: ATPKGYEPDAS
B9: OR52J3_Y125_V128I (peptide)
chain: MAFDRYVAICA
B10: P2RX7_Y291_Y288H_YF (peptide)
chain: SLHPGYNFRFA
B11: OTC_Y345_L341P (peptide)
chain: SPLTDYSPQLQ
B12: OR2B11_Y127 (peptide)
chain: MALDRYVAICK
B13: OR10C1_Y251 (peptide)
chain: MVSLFYGTALF
B14: P3H4_Y181 (peptide)
chain: ELTAKYLNYYQ
B15: OTC_Y345_Y345C (peptide)
chain: SLLTDCSPQLQ
B16: OR4C12_Y285_V283L (peptide)
chain: LNPLVYTLRNA
B17: OR8D4_Y123_C120Y (peptide)
chain: MAYDRYVAICS
B18: OR8K3_Y277_I275M (peptide)
chain: VASMFYTLVIP
B19: OPTN_Y356_T357P (peptide)
chain: KQELVYPNKKL

The other results are listed elsewhere or left out. No stated cut-off is given here; in the data, active = 3.2 or more and inactive = the rest. Most of these values are background signal.
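Further: displayed peptides selected on beads carrying the immobilized SH2 domain, with library peptides lacking any tyrosine serving as negative controls.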

In the first test the target is SHP2 C-SH2 domain E139D. Briefly: enrichment score (SH2-bound / input frequency) (ratio); bacterial display of known human phosphotyrosine sites (pTyr-Var adds point mutants) read by sequencing; higher = stronger binding; tyrosines were phosphorylated by kinases first. Particulars: peptide library: pTyr-Var.
In the case of B1, the enrichment score was inactive: 0.217.

Regarding B2, the enrichment score is inactive: 1.37.

As for B3, the enrichment score was inactive: 1.49.

For B4, the enrichment score was inactive: 0.748.

B5: the enrichment score was inactive: 1.14.

For the molecule B6, the enrichment score was inactive: 0.946.

Consider B7, for which the enrichment score was inactive: 0.785.

Take B8: the enrichment score is inactive: 0.662.

Consider B9, for which the enrichment score was inactive: 1.21.

With B10, the enrichment score is inactive: 1.28.

In the case of B11, the enrichment score is inactive: 0.822.

For B12, the enrichment score was inactive: 0.723.

With B13, the enrichment score is inactive: 0.876.

Take B14: the enrichment score was inactive: 1.06.

As to B15, the enrichment score was inactive: 0.821.

For B16, the enrichment score was inactive: 0.898.

In the case of B17, the enrichment score is inactive: 0.76.

On to B18, for which the enrichment score is inactive: 2.79.

With B19, the enrichment score was inactive: 0.652.

The target in another test is SHP2 C-SH2 domain wild-type. Described as above. The note with it: peptide library: pTyr-Var.
Turning to B1, the enrichment score was inactive: 0.249.

For the molecule B2, the enrichment score is inactive: 1.98.

B3: the enrichment score is inactive: 1.09.

Turning to B4, the enrichment score is inactive: 0.617.

In the case of B5, the enrichment score is inactive: 0.89.

On to B6, for which the enrichment score is inactive: 0.814.

Consider B7, for which the enrichment score is inactive: 0.642.

On to B8, for which the enrichment score is inactive: 0.505.

Take B9: the enrichment score is inactive: 1.4.

Regarding B10, the enrichment score was inactive: 1.6.

Regarding B11, the enrichment score is inactive: 0.606.

In the case of B12, the enrichment score was inactive: 0.713.

As for B13, the enrichment score is inactive: 1.1.

For B14, the enrichment score is inactive: 0.812.

Take B15: the enrichment score was inactive: 0.906.

For B16, the enrichment score is inactive: 1.13.

Consider B17, for which the enrichment score is inactive: 0.979.

For B18, the enrichment score is inactive: 2.59.

On to B19, for which the enrichment score was inactive: 0.674.

The next test addresses SHP2 N-SH2 domain L43F. The test is described as above. Particulars: peptide library: pTyr-Var.
Take B1: the enrichment score was inactive: 0.422.

As for B2, the enrichment score is inactive: 0.783.

For B3, the enrichment score is active: 6.55.

Consider B4, for which the enrichment score was inactive: 0.858.

Consider B5, for which the enrichment score was inactive: 1.15.

With B6, the enrichment score was inactive: 0.773.

Regarding B7, the enrichment score is inactive: 0.704.

For the molecule B8, the enrichment score was inactive: 0.618.

Take B9: the enrichment score is inactive: 1.07.

Turning to B10, the enrichment score was inactive: 1.41.

On to B11, for which the enrichment score is inactive: 0.734.

In the case of B12, the enrichment score was inactive: 0.681.

Take B13: the enrichment score is inactive: 0.712.

As for B14, the enrichment score was inactive: 1.24.

On to B15, for which the enrichment score is inactive: 0.811.

B16: the enrichment score is active: 4.47.

Regarding B17, the enrichment score was inactive: 0.797.

On to B18, for which the enrichment score was inactive: 2.27.

In the case of B19, the enrichment score was inactive: 0.789.

The next test concerns the target SHP2 N-SH2 domain T42A. The test is described as above. Particulars: peptide library: pTyr-Var.
On to B1, for which the enrichment score was inactive: 0.414.

For B2, the enrichment score is inactive: 0.804.

As for B3, the enrichment score was inactive: 1.11.

On to B4, for which the enrichment score is inactive: 0.634.

B5: the enrichment score is inactive: 0.905.

In the case of B6, the enrichment score was inactive: 0.832.

Take B7: the enrichment score was inactive: 0.652.

As to B8, the enrichment score is inactive: 0.549.

For B9, the enrichment score is inactive: 1.03.

On to B10, for which the enrichment score is inactive: 1.47.

Take B11: the enrichment score was inactive: 0.58.

Consider B12, for which the enrichment score was inactive: 0.797.

For the molecule B13, the enrichment score is inactive: 0.814.

Take B14: the enrichment score is inactive: 1.27.

B15: the enrichment score was inactive: 0.698.

B16: the enrichment score is inactive: 1.04.

Turning to B17, the enrichment score is inactive: 0.753.

As for B18, the enrichment score is inactive: 2.4.

Take B19: the enrichment score was inactive: 0.787.

The target of a further test is SHP2 N-SH2 domain T52S. Described as above. Particulars: peptide library: pTyr-Var.
Take B1: the enrichment score is inactive: 0.327.

Turning to B2, the enrichment score was inactive: 1.05.

For B3, the enrichment score is active: 8.6.

Consider B4, for which the enrichment score was inactive: 0.659.

As for B5, the enrichment score was inactive: 1.12.

Consider B6, for which the enrichment score was inactive: 0.906.

In the case of B7, the enrichment score is inactive: 0.574.

Consider B8, for which the enrichment score was inactive: 0.521.

Take B9: the enrichment score is inactive: 0.859.

Take B10: the enrichment score is inactive: 1.41.

Take B11: the enrichment score was inactive: 0.752.

As to B12, the enrichment score was inactive: 0.688.

Take B13: the enrichment score was inactive: 0.879.

As to B14, the enrichment score was inactive: 1.18.

For the molecule B15, the enrichment score was inactive: 0.808.

On to B16, for which the enrichment score was active: 5.19.

With B17, the enrichment score was inactive: 0.734.

Turning to B18, the enrichment score was inactive: 2.39.

With B19, the enrichment score was inactive: 0.821.

The target in the next test is SHP2 N-SH2 domain wild-type. The test is described as above. Particulars: peptide library: pTyr-Var.
With B1, the enrichment score was inactive: 0.223.

Regarding B2, the enrichment score was inactive: 1.02.

On to B3, for which the enrichment score was inactive: 2.1.

In the case of B4, the enrichment score is inactive: 0.683.

On to B5, for which the enrichment score is inactive: 1.

Regarding B6, the enrichment score is inactive: 0.915.

For the molecule B7, the enrichment score was inactive: 0.668.

As for B8, the enrichment score is inactive: 0.736.

For the molecule B9, the enrichment score was inactive: 1.87.

B10: the enrichment score was inactive: 1.66.

On to B11, for which the enrichment score was inactive: 0.816.

Take B12: the enrichment score is inactive: 0.764.

Turning to B13, the enrichment score was inactive: 0.827.

Take B14: the enrichment score was inactive: 1.19.

Turning to B15, the enrichment score is inactive: 0.828.

Turning to B16, the enrichment score is active: 7.21.

In the case of B17, the enrichment score is inactive: 0.894.

In the case of B18, the enrichment score was inactive: 2.33.

As to B19, the enrichment score was inactive: 0.956.
